Whole data set: some 33,000 sequences, median “E-score (-0.5 to 0.5)” near -0.041, cut for the highest 2% near 0.37. The list shows a part of the results.
Target: T1, Ecm22 (UniProt Q05958)
T1 sequence: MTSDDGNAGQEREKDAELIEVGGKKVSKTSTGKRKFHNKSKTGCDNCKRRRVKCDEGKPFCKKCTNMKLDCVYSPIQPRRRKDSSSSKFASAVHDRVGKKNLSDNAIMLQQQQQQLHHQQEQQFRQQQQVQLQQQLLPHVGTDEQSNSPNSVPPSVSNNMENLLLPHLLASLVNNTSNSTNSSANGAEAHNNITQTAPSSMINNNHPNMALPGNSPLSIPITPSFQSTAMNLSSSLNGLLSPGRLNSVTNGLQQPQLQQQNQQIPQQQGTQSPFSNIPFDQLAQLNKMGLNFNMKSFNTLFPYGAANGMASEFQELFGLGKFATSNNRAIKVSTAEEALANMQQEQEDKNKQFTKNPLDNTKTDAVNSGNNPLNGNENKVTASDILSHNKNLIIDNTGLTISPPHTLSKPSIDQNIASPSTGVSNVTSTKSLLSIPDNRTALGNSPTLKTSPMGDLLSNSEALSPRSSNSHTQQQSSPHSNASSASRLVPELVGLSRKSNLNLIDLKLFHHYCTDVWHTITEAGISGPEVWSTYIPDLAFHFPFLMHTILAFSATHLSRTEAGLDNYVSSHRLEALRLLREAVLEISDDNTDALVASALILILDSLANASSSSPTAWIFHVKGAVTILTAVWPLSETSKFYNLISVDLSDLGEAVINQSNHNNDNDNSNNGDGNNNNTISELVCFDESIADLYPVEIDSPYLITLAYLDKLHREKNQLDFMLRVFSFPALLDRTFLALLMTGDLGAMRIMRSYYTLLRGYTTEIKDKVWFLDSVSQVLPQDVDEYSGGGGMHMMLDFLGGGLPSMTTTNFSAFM
Assay: PBM E-score (8-mer binding enrichment) (E-score (-0.5 to 0.5)); higher = stronger / more preferred TF binding; most listed sequences are background and not binding sites
Settings: protein concentration: 200 nM; construct: GST-full length
In short: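 E-scores (a modified Wilcoxon-Mann-Whitney statistic) were assigned by the Universal PBM Analysis Suite to every ungapped eight-base word pooled with its reverse complement. The input came from universal all-10-mer Agilent arrays made double-stranded by primer extension and probed with GST-tagged yeast transcription factors at about 100-200 nM. Fluorescent anti-GST detected bound protein, and masliner normalised the scans.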

Sequence | PBM E-score
CGGCTGCA | 0.0404
ATCGGTTA | 0.362
GCCACCGC | -0.199
GAAGAAAA | -0.126
CTTTATTC | -0.087
CCCTGGCC | -0.261
CGAGTCTC | 0.111
CGACCTAA | 0.293
GTTTATAA | 0.232
CATAGTCA | -0.094
CAAGATTG | -0.135
CCTGCAGG | -0.352
ACCCGTGC | -0.055
ATAACTAC | 0.0754
AGAAGAGG | -0.145
CACCCCTC | -0.0795
AAACTTCA | 0.0121
ACATAAGT | -0.145
GATTAAGC | 0.0332
CTCCCCGA | -0.0939
CAAATCTG | -0.221
AATTTAGC | -0.0245
CACTACAA | 0.0495
ACGCGACG | 0.291
ACGGCGAT | 0.377

Sequence | PBM E-score
AAAGTTCT | -0.105
AAAGACCG | -0.101
GAAACTGA | -0.0628
CCGACCTA | 0.0401
ATCGAGAT | 0.0251
GCACTCCC | -0.206
CGCCTTGA | -0.145
TCGGTCAA | 0.257
CGTCGCTA | 0.252
CGCAACTA | 0.0567
CCGTTCCA | 0.373
TCTGACAA | -0.15
AGCTATTA | -0.21
GAGCCTAA | 0.0176
ATAATTCA | 0.0687
GAAGGCGC | -0.0899
TGCCGTAA | 0.227
CAAGAACC | -0.0263
CGTTAACG | 0.26
ACAGTTAG | -0.184
AGAGTGTG | 0.115
ACACATAG | -0.232
GACTCGTA | 0.455
CAATCCAG | -0.417
CTTTACGC | 0.211

Sequence | PBM E-score
CACTATGG | -0.0412
AGCGTCAT | -0.0415
CAAAGCGG | -0.0992
GCTCCACA | -0.0705
GAAAAAGC | -0.00535
ACGAAAAG | 0.339
CAACTGAC | -0.154
ATCACAAC | -0.0429
AGCGCCGA | -0.0179
AGAGCCTA | -0.0789
TCTGCAAA | -0.0603
GTACATAC | 0.17
AACACGTT | 0.0454
GCAATAGA | 0.165
CTCCTTTA | -0.135
AAGAAATA | 0.00355
ATGCTATA | -0.00026
AAAGTAAA | -0.0722
AGAAAGTG | -0.236
ATGAGTAA | -0.0801
ATTGCATC | 0.0349
CTTTTCCC | 0.0866
GGGGCACC | -0.0334
ATACAATG | -0.195
AATGGGAA | -0.27

Sequence | PBM E-score
AACATGGC | -0.118
CGGTGAAA | 0.262
AAGAAGAT | -0.0912
ATCCCCGA | -0.101
CAATAAGA | -0.137
ACGGCTCT | 0.0583
ATACTTCA | -0.115
ATCTTAAA | 0.0536
GAGCCCCC | -0.138
CCTTGCTA | -0.083
CAAGCGGA | -0.136
AAAGGCAT | -0.132
CTGCGATC | 0.0253
AGCTGAGC | -0.1
GGAGGCGA | -0.153
AATCCTTG | -0.203
CCTCATTA | -0.131
TCGCCAAA | 0.157
ATTTGCTG | 0.0223
AGTTCTCG | 0.244
AATATCAC | -0.0232
CAGCGACC | -0.189
AAGTCAAC | -0.0403
CAGGTGGA | -0.313
TGTAACAA | 0.00855

Sequence | PBM E-score
AACGCCCC | 0.0855
ATCAGAAA | -0.206
ATTCTCAG | -0.308
AATAGGGC | -0.141
ACTTTCAT | -0.057
CTAGTGAG | -0.237
CTTAACTA | -0.113
ATCTTAAG | -0.0865
CGTCTGAC | 0.104
TACACGTA | 0.131
AATGAGGT | -0.058
CCCTACAC | -0.0142
CGTCATCA | 0.0164
ATAATAGC | 0.0604
CAACGCAC | 0.0008
CTAGTCTC | -0.128
GGAGGATA | -0.136
ATCTCGAA | 0.069
ATTTCTGG | -0.211
CTGTGAGC | -0.0522
ATTTAAGG | -0.0374
TGAGGGAA | -0.0613
AATCATGG | -0.122
AGCAGGCC | -0.174
AATAGTCA | -0.014

Sequence | PBM E-score
AACGTCTC | 0.0335
CTACGCTA | -0.199
GCTCCAAA | -0.167
ATCTCCGG | 0.033
ATTAATAA | 0.0778
AACGAGCA | 0.46
ATCCTATG | -0.143
CCGTAGTC | 0.0351
GAGCTGGC | -0.0227
GAATGAGC | -0.0444
GAGGACGC | 0.00547
AAACGACC | 0.45
AAACCTCA | 0.033
ATTGTGGC | -0.131
GCATGAGC | -0.0629
CGTCCAGC | -0.205
ACACAGGA | -0.0255
AAAACAGC | -0.102
CACCCCCC | -0.33
CCCCGGTA | -0.0799
ACGGAGTC | 0.0712
AGTATCCG | 0.0992
ATATCCGA | 0.3
AACCCTAG | -0.0686
TGTCGCAA | 0.216

Sequence | PBM E-score
GTCCGATA | 0.0757
CACGGACC | 0.135
AAATGACA | -0.171
ATTCCTGA | -0.209
CGCGGAGA | 0.0766
CTGCTACA | -0.137
CCGTGTCA | -0.118
TCGACTAA | -0.0908
CCCTGGGC | -0.299
AGGTACTA | -0.0688
CAAACTTC | -0.125
CCCCCCCC | -0.402
CCGGGGCC | -0.129
TCGAGACA | 0.105
AATTAATG | 0.0262
CATGACTA | -0.0693
ACCTATCC | -0.0402
CACTTAGC | -0.177
ACTTGTGG | -0.0916
AAATTTTC | 0.0924
CCTGTTCA | -0.0287
AAGGATCG | 0.22
CAAGGAGC | -0.0859
CCCACAAG | 0.0473
AGCGTACC | 0.251

Sequence | PBM E-score
GTATGCGA | 0.321
TCGCCTCA | -0.0214
CCCGAATC | 0.0646
GATGTTAA | -0.0215
AATCAATC | 0.0671
CTCCGTTA | 0.0433
ACAGATAA | -0.0749
AAGCGCAG | -0.0478
ACGTGTAA | 0.02
CAAGGACC | -0.0754
AGGCGGGG | -0.0751
CATTACCA | -0.173
ATCCTCCC | -0.0763
TCCCAGAA | -0.0801
TCTCTCCA | -0.0875
ACACTGTA | 0.0998
CCTTACTA | 0.0754
ATATTCGA | 0.137
ATTATTTA | 0.0468
GGCGCGAC | 0.114
AGAAAGTA | -0.0193
AAATGCCA | -0.256
CCGTGCAC | -0.0946
AAGGCACA | -0.202
ACGTCAAG | -0.081

Sequence | PBM E-score
GGTCATAA | 0.0137
CCTCCCCC | -0.303
GTGCTCAA | -0.0853
CATCGAGG | 0.0649
AGTGCCCC | -0.297
ACCCACTA | -0.158
CGCCATTC | -0.0764
ATCATGAT | 0.14
ACGTGAAA | 0.00053
TAGGGTAA | -0.0377
AGGTCCTA | -0.0772
GCTTGGTA | 0.123
CATGGTAC | 0.0684
GGATGGGA | 0.0713
AAAAGCCA | -0.0154
TAGTACAA | 0.0161
CCCGCAGG | -0.0318
CCCGTGAG | -0.208
CTGATCAC | -0.269

— the supplement of paper PMC3334620
